# The other results are listed elsewhere or left out.
# B1: Surfactant Protein D (Human); Neck + Carbohydrate Recognition Domain (NCRD) (Homo sapiens) (protein)
# chain: MLLFLLSALVLLTQPLGYLEAEMKTYSHRTMPSACTLVMCSSVESGLPGRDRDGREGPRGEKGDPGLPGAAGQAGMPGQAGPVGPKGDNGSVGEPGPKGDTGPSGPPGPPGVPGPAGREGALGKQGNIGPQGKPGPKGEAGPKGEVGAPGMQGSAGARGLAGPKGERGVPGERGVPGNTGAAGSAGAMGPQGSPGARGPPGLKGDKGIPGDKGAKGESGLPDVASLRQQVEALQGQVQHLQAAFSQYKKVELFPNGQSVGEKIFKTAQFVKPFTEAQLLCTQAGGQLASPRSAAENAALQQLVVAKNEAAFLSMTDSKTEGKFTYPTGESLVYSNWAPGEPNDDGGSEDCVEIFTNGKWNDKACGEKRLVVCEF
# Experiments:
# Assay in all cases: glycan array binding signal (z-score within array); higher = stronger binding
# Conditions in all cases: glycan notation: IUPAC condensed, linker removed; mutation: R343K
# Gal(b1-3)GlcNAc = biological target: Gal(b1-3)GlcNAc
# Outline: (§1)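 From the Consortium for Functional Glycomics database, 3228 arrays were curated, keeping only those whose protein sequence was available. Binding is given as a within-array Z-score averaged across arrays sharing a protein sequence and across linkers. Negative Z-scores can be read as non-binding.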
# [1] = biological target: Gal(b1-3)GlcNAc(b1-2)Man(a1-3)[Gal(b1-3)GlcNAc(b1-2)Man(a1-6)]Man(b1-4)GlcNAc(b1-4)GlcNAc
# Outline: as §1
# [2] = biological target: Gal(b1-3)GlcNAc(b1-3)Gal(b1-3)GlcNAc
# Outline: as §1
# [3] = biological target: Gal(b1-3)GlcNAc(b1-3)Gal(b1-4)Glc
# Outline: as §1
# [4] = biological target: Gal(b1-3)GlcNAc(b1-3)Gal(b1-4)GlcNAc
# Outline: as §1
# [5] = biological target: Gal(b1-3)[Fuc(a1-4)]GlcNAc
# Outline: as §1
# [6] = biological target: Gal(b1-3)[Fuc(a1-4)]GlcNAc(b1-3)Gal(b1-3)[Fuc(a1-4)]GlcNAc
# Outline: as §1
# [7] = biological target: Gal(b1-3)[Fuc(a1-4)]GlcNAc(b1-3)Gal(b1-4)GlcNAc
# Outline: as §1
# [8] = biological target: Gal(b1-3)[Fuc(a1-4)]GlcNAc(b1-3)Gal(b1-4)[Fuc(a1-3)]GlcNAc
# Outline: as §1
# [9] = biological target: Gal(b1-3)[GlcNAc(b1-6)]GalNAc
# Outline: as §1
# [10] = biological target: Gal(b1-3)[Neu5Ac(a2-6)]GalNAc
# Outline: as §1
# [11] = biological target: Gal(b1-3)[Neu5Ac(a2-6)]GlcNAc(b1-6)Gal(b1-4)Glc
# Outline: as §1
# [12] = biological target: Gal(b1-3)[Neu5Ac(b2-6)]GalNAc
# Outline: as §1
# [13] = biological target: Gal(b1-4)GalNAc(a1-3)[Fuc(a1-2)]Gal(b1-4)GlcNAc
# Outline: as §1
# [14] = biological target: Gal(b1-4)GalNAc(b1-3)[Fuc(a1-2)]Gal(b1-4)GlcNAc
# Outline: as §1
# Gal(b1-4)Glc = biological target: Gal(b1-4)Glc
# Outline: as §1
# Gal(b1-4)Glc6S = biological target: Gal(b1-4)Glc6S
# Outline: as §1
# Gal(b1-4)GlcNAc = biological target: Gal(b1-4)GlcNAc
# Outline: as §1
# [15] = biological target: Gal(b1-4)GlcNAc(a1-6)Gal(b1-4)GlcNAc
# Outline: as §1
# [16] = biological target: Gal(b1-4)GlcNAc(b1-2)Man(a1-3)[Gal(b1-4)GlcNAc(b1-2)Man(a1-6)]Man(b1-4)GlcNAc(b1-4)GlcNAc
# Outline: as §1
# [17] = biological target: Gal(b1-4)GlcNAc(b1-3)Gal(b1-3)GlcNAc
# Outline: as §1
# [18] = biological target: Gal(b1-4)GlcNAc(b1-3)Gal(b1-4)Glc
# Outline: as §1
# [19] = biological target: Gal(b1-4)GlcNAc(b1-3)Gal(b1-4)GlcNAc
# Outline: as §1
# [20] = biological target: Gal(b1-4)GlcNAc(b1-3)Gal(b1-4)GlcNAc(b1-3)Gal(b1-4)GlcNAc
# Outline: as §1
# [21] = biological target: Gal(b1-4)GlcNAc(b1-3)Gal(b1-4)[Fuc(a1-3)]GlcNAc(b1-3)Gal(b1-4)[Fuc(a1-3)]GlcNAc
# Outline: as §1
# [22] = biological target: Gal(b1-4)GlcNAc(b1-3)GalNAc
# Outline: as §1
# [23] = biological target: Gal(b1-4)GlcNAc(b1-3)[Gal(b1-4)GlcNAc(b1-6)]Gal(b1-4)GlcNAc
# Outline: as §1
# [24] = biological target: Gal(b1-4)GlcNAc(b1-3)[GlcNAc(b1-6)]Gal(b1-4)GlcNAc
# Outline: as §1
# [25] = biological target: Gal(b1-4)GlcNAc(b1-6)Gal(b1-4)GlcNAc
# Outline: as §1
# [26] = biological target: Gal(b1-4)GlcNAc(b1-6)Gal(b1-4)GlcNAc(b1-6)GalNAc
# Outline: as §1
# [27] = biological target: Gal(b1-4)GlcNAc(b1-6)GalNAc
# Outline: as §1
# [28] = biological target: Gal(b1-4)GlcNAc(b1-6)[Gal(b1-3)]GalNAc
# Outline: as §1
# Gal3S(b1-3)GalNAc = biological target: Gal3S(b1-3)GalNAc
# Outline: as §1
# Gal3S(b1-3)GlcNAc = biological target: Gal3S(b1-3)GlcNAc
# Outline: as §1
# [29] = biological target: Gal3S(b1-3)[Fuc(a1-4)]GlcNAc
# Outline: as §1
# Gal3S(b1-4)Glc = biological target: Gal3S(b1-4)Glc
# Outline: as §1
# Gal3S(b1-4)Glc6S = biological target: Gal3S(b1-4)Glc6S
# Outline: as §1
# Gal3S(b1-4)GlcNAc = biological target: Gal3S(b1-4)GlcNAc
# Outline: as §1
binder,measurement,setting,value
B1,glycan array binding signal (z-score),Gal(b1-3)GlcNAc,-0.147
same,glycan array binding signal (z-score),[1],-0.152
same,glycan array binding signal (z-score),[2],-0.148
same,glycan array binding signal (z-score),[3],-0.157
same,glycan array binding signal (z-score),[4],-0.153
same,glycan array binding signal (z-score),[5],-0.154
same,glycan array binding signal (z-score),[6],-0.152
same,glycan array binding signal (z-score),[7],-0.14
same,glycan array binding signal (z-score),[8],-0.13
same,glycan array binding signal (z-score),[9],-0.153
same,glycan array binding signal (z-score),[10],-0.159
same,glycan array binding signal (z-score),[11],-0.152
same,glycan array binding signal (z-score),[12],-0.146
same,glycan array binding signal (z-score),[13],-0.145
same,glycan array binding signal (z-score),[14],-0.15
same,glycan array binding signal (z-score),Gal(b1-4)Glc,-0.153
same,glycan array binding signal (z-score),Gal(b1-4)Glc6S,-0.148
same,glycan array binding signal (z-score),Gal(b1-4)GlcNAc,-0.146
same,glycan array binding signal (z-score),[15],-0.153
same,glycan array binding signal (z-score),[16],-0.149
same,glycan array binding signal (z-score),[17],-0.154
same,glycan array binding signal (z-score),[18],-0.154
same,glycan array binding signal (z-score),[19],-0.155
same,glycan array binding signal (z-score),[20],-0.155
same,glycan array binding signal (z-score),[21],-0.154
same,glycan array binding signal (z-score),[22],-0.14
same,glycan array binding signal (z-score),[23],-0.158
same,glycan array binding signal (z-score),[24],-0.155
same,glycan array binding signal (z-score),[25],-0.154
same,glycan array binding signal (z-score),[26],-0.146
same,glycan array binding signal (z-score),[27],-0.151
same,glycan array binding signal (z-score),[28],-0.149
same,glycan array binding signal (z-score),Gal3S(b1-3)GalNAc,-0.155
same,glycan array binding signal (z-score),Gal3S(b1-3)GlcNAc,-0.155
same,glycan array binding signal (z-score),[29],-0.153
same,glycan array binding signal (z-score),Gal3S(b1-4)Glc,-0.153
same,glycan array binding signal (z-score),Gal3S(b1-4)Glc6S,-0.145
same,glycan array binding signal (z-score),Gal3S(b1-4)GlcNAc,-0.153
